# Among all 150,000 compounds or so, about 540 (0.36%) showed an effect of 50% or more. Some of the results follow.
# System: Plasmodium falciparum
# Assay: Primary screen in NF54 nanoGlo assay, in single point, at 2uM, 72h; a lower Z score goes with more inhibition
# Format: functional, Erythrocyte
# Details: timepoint 72 hour
Structure (SMILES),% Inhibition [%],Z score
COCCN1C(=O)N[C@@](Cc2ccc(F)cc2)(C2CCN(Cc3cc(C)cc(C)c3)CC2)C1=O,-17,2.23
Oc1ccc(-c2nc(C3CCCCC3)no2)c(F)c1,-10,2.01
O=c1ccccn1Cc1ncnn1C1Cc2ccccc2C1,-14,1.61
COc1ccc(-n2nnnc2-c2cnc(-c3ccc(C(N)=O)cc3)nc2C(F)(F)F)cc1,1,-0.14
CCOc1ncccc1C(=O)N1CC(OCc2ccccc2C)C1,-12,1.36
Cc1ccc(CN(CC(=O)O)C(C)C)s1,-9,1.33
CO[C@@H](C)CS(=O)(=O)N(C)CCn1cccn1,-5,0.58
CC(C)N(C(=O)COC(=O)Cn1ncc(=O)c2ccccc21)C1CCCC1,-1,0.11
CC1=CCN(C(=O)c2cccc(S(=O)(=O)NC3CCC3)c2)CC1,3,-0.46
CCN(CC)C(=O)c1cn(C[C@H]2CCCN(Cc3ccoc3)C2)nn1,5,-0.68
Cc1cccc(COc2cc(C)cnn2)c1,-1,0.16
CC(C)c1c(C(=O)N2CCC(N3CCCCC3)CC2)cnn1-c1nccc(-c2ccccc2F)n1,20,-2.56
O=C(c1ccncc1Br)N1CCS(=O)(=O)CC1,-4,0.65
CO[C@H]1C[C@H]2CN(C(=O)NCCc3ccccc3)[C@@H](Cc3ccccc3)C(=O)N2C1,-5,0.77
CCCN(CC(=O)N(CCc1ccccc1)Cc1ccco1)C(=O)c1ccccc1F,-2,0.29
C#CCN(CC(=O)c1cc(C)n(-c2cccc(S(=O)(=O)N3CCOCC3)c2)c1C)Cc1ccco1,-1,0.16
C[C@](N)(Cc1ccccc1)C(=O)N1CCc2[nH]nc(-c3cccc(F)c3)c2C1,5,-0.91
Cn1cccc1C(=O)C(=O)N1CCN(C(c2ccccc2)c2ccccc2)CC1,-13,1.21
CCN1CCOC(C(=O)NC(C#N)c2cccc(Cl)c2)C1 (stereo not drawn),-15,2.15
Cc1cccc(OCC(=O)O/N=C(\N)Cc2ccc(Cl)cc2Cl)c1C,-13,1.57
CNC(=O)NCC(=O)N1CCCCCNC(=O)C[C@H]1c1ccccc1,-6,0.78
CCNC(=O)N1CCc2c(cnc(C)c2-c2noc(-c3cnn(CC)c3C)n2)C1,-6,0.92
O=C(c1ccco1)N1CCOc2ccc(N3CCOCC3)cc2C1,-1,0.15
COc1cc(F)cc2sc(NC(=O)[C@@H]3CCCCO3)nc12,-18,2.34
CC(C)n1nnnc1-c1ccc(NC(=O)Nc2ccn(C)n2)cc1F,-12,2.29
O=C1OC[C@@H]2CCN(CC3CCCCC3)Cc3ccc(F)cc3N12,10,-1.22
NC(=O)C(Cc1ccccc1)NC(=O)C1CC2C=CC1C2 (stereo not drawn),4,-0.57

Structure (SMILES),% Inhibition [%],Z score
COc1ccc([C@@H]2C[C@H](c3cccc(OC)c3)n3nc(N)nc3N2)cc1,-1,0.22
Cc1nccn1-c1cc(CNC(=O)c2cccs2)ccn1,-9,0.96
OCc1cn([C@H]2CCCN(Cc3nnc4n3CCCCC4)C2)nn1,-9,1.42
COc1cccc([C@@H](CNS(=O)(=O)c2ccc3c(c2)CC(=O)N3)c2c[nH]c3ccccc23)c1OC,1,-0.15
O=C(NC1CCCCCCC1)c1cccnc1,0,-0.01
CCN1CCN(C(=O)COCc2ccnn2C)C(C)(C)C1=O,4,-0.5
CC(C)Cc1nc(Cc2nc(-c3cccnc3)n[nH]2)n(-c2ccccn2)n1,-7,1.01
CCOc1cccc(Cc2noc(C3(C)CC3)n2)n1,-5,0.66
CC(=O)N1CCN(C(=O)c2cnn(-c3ncc(C)c(-c4cccs4)n3)c2C2CC2)CC1,-17,2.17
CC(C)NC(=O)c1ncn2c1C(=O)N(C1CC1)[C@](C)(C(=O)NC1CCCC1)C2,-5,0.53
CC[C@H]1C(=O)NCCCN1Cc1nc(C)cc(O)n1,-9,1.4
CNS(=O)(=O)[C@H]1CCN(CC(C)(C)c2ccccc2)C1,2,-0.33
CC1CCN(C(=O)N2CCN(c3cccc(Cl)c3)CC2)CC1,-5,0.91
O=C(c1cc(-c2cccnc2)n(-c2ccccc2)n1)N1CCCC1,-9,1.17
O=C(NS(=O)(=O)c1ccc(NS(=O)(=O)c2cccc3nsnc23)cc1)c1ccccc1,-24,2.84
CCc1nnc(CNc2nccc(C3CCCC3)n2)s1,7,-0.93
CC(=O)N1CCC(N2C[C@@H]3Oc4ccc(C(F)(F)F)cc4C(=O)N(C)[C@@H]3C2)CC1,-4,0.67
CCN[C@H](C)CNC(=O)c1cc(Br)ccc1O,-2,0.27
CCn1ncnc1CNc1ccc(Br)cc1CO,-4,0.71
Fc1cnccc1N1CCC[C@H](CN2CCCCC2)C1,-14,2.79
CC[C@H](Nc1cc(OC)ncn1)c1nccs1,-1,0.1
CC(C)Cc1nc(NC(=O)[C@H](c2ccccc2)n2cnnn2)n[nH]1,-12,1.51
CCC1CC(C)CN1C(=O)CN1C(=O)NC(CC)(CC)C1=O (stereo not drawn),6,-1.06
COc1ccc(CN(C(=O)CC(C)(C)C)C(C)C)cc1OS(C)(=O)=O,-14,1.33
Cn1cc(C(=O)N2CCc3nc(NC(=O)c4ccco4)sc3C2)nn1,-14,2.1
CCN1CCc2ccc(OCC(=O)NCc3ccccc3)cc2[C@@H]1c1ccccc1,17,-1.71
Cc1nc(C)c(-c2nc3c([nH]2)c(C)nn3Cc2cccc(Cl)c2)nc1C,1,-0.17

# — ChEMBL document CHEMBL4888484, “Replenishing the malaria drug discovery pipeline: Screening and hit evaluation of the MMV Hit Generation Library 1 (HGL1) against asexual blood stage Plasmodium falciparum ,using a nano luciferase reporter read-out” (2022)
